Hit rate of the full screen: of about 43,000 compounds, about 830 (1.9%) were called active. Inconclusive results, whose numbers are uncertain, are shown with a selection of clear calls. How the source made its calls: active means clear falling dose curves in both reporters; inconclusive means both reporters move, but less clearly or upward; inactive means either reporter flat; the % is the NLuc reporter signal. Potencies of inconclusive entries are left out as doubtful fits.
assay: Cell-based coincidence reporter assay to measure PMP22 gene transcription in S16 Pmp22-F2sN cells - Primary screen; conditions: S16 Pmp22-F2sN Schwann cells (luciferase reporters placed in the Pmp22 gene), FLuc/NLuc coincidence luminescence, 24 h; measured here: NLuc reporter readout, at 57.5 µM (top of the series)
Outline: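 S16 Schwann cells carrying FLuc/NLuc coincidence reporter in the Pmp22 3' UTR treated with compound 24 h at 37C; FLuc then NLuc luminescence read sequentially by dual-luciferase reagents.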
Potency means the concentration at half of the fitted maximal effect; tags describe the fitted curve by direction and shape.

Row | Compound | Potency
1 | COC(=O)c1c(SC)nc2ccccc2c1OCc1ccc(C)cc1C | inactive
2 | O=C(CSc1nc2ccccc2nc1Cc1ccc(Cl)cc1)N1CCCCC1 | inconclusive [phenotype inactive, single point]
3 | CCCCOC(=O)c1ccc(NC(=O)c2ccc3c(c2)CCCN3S(C)(=O)=O)cc1 | inactive
4 | CCc1ccccc1-n1c(SCC(=O)Nc2ccc(C)cc2)nc2n[nH]c(C)c2c1=N | inconclusive [phenotype inactive, single point]
5 | COc1ccc(C(=O)NCC(c2ccc(N(C)C)cc2)N2CCOCC2)cc1 (stereo unspecified) | inconclusive [phenotype inactive, single point]
6 | CSc1ccc(CCNC(=O)c2c(C)nn(-c3ccc(F)cc3)c2-n2cccc2)cc1 | active: 15.2 µM
7 | Cc1ccccc1C(=O)Nc1sc2c(c1C(=O)N1CCCCC1)CCC(C(C)(C)C)C2 (stereo unspecified) | inconclusive [phenotype inactive, single point]
8 | Cc1cccn2c(=O)cc(CSc3nnc(NC(=O)C(C)C)s3)nc12 | inactive
9 | COc1ccc(Cl)cc1NC(=O)CSc1cc(C)[nH]c(=O)n1 | inconclusive [phenotype inactive, partial curve, poor fit]
10 | CCOC(=O)c1noc2ncnc(N3CCN(c4cccc(Cl)c4)CC3)c12 | inconclusive [phenotype inactive, single point]
11 | O=C(Nc1nc2ccc(S(=O)(=O)N3CCCC3)cc2s1)c1ccc(F)cc1 | inconclusive [phenotype inactive, single point]
12 | CCc1nn(CC(=O)NCc2ccccc2Cl)c(=O)c2cc3ccccc3n12 | inconclusive [phenotype inactive, single point]
13 | COc1cccc(C2=C(C(C)=O)Sc3nnc(C4CCCCC4)n3N2C(C)=O)c1 | inconclusive [phenotype inactive, single point]
14 | CCC(C(=O)Nc1cc(OC)ccc1OC)n1c(=O)c(C(F)(F)F)nc2ccccc21 (stereo unspecified) | inconclusive [phenotype inactive, single point]
15 | O=C(CCCn1c(=O)c2ccccc2n(CC(=O)Nc2cccc(Cl)c2)c1=O)NCc1ccc2c(c1)OCO2 | inconclusive [phenotype inactive, partial curve, poor fit]
16 | CCOc1ccc2oc(=O)cc(CN3CCN(Cc4ccc(F)cc4)CC3)c2c1 | active: 14.1 µM
17 | Cc1cc(C)cc(-n2ccnc2SCC(=O)Nc2ccc(C)cc2C)c1 | inconclusive [phenotype inactive, single point]
18 | Cc1nc2ccc(S(=O)(=O)NC(C(=O)N3CCN(c4ccc(Cl)cc4)CC3)C(C)C)cc2s1 (stereo unspecified) | inactive
19 | CN(C)c1ccc(NC(=O)CN2C(=O)c3ccccc3Sc3ccc(C(=O)N4CCCC4)cc32)cc1 | inconclusive [phenotype inactive, single point]
20 | CCc1ccc(NC(=O)CN2CCSc3ccc(S(=O)(=O)N4CCCC4)cc32)cc1 | active: 17 µM
21 | CCOC(=O)C1CCC(CN(Cc2c(Cl)cccc2Cl)S(=O)(=O)c2ccc(Cl)cc2)CC1 (stereo unspecified) | inconclusive [phenotype inactive, single point]

Row | Compound | Potency
22 | Cc1ccc(NC(=O)c2ccc3oc(=O)c(S(=O)(=O)c4ccccc4)cc3c2)cc1C | inactive
23 | CS(=O)(=O)c1oc(-c2ccc(F)cc2)nc1S(=O)(=O)c1ccc(Cl)cc1 | active: 4.47 µM
24 | Cc1c(Cl)cccc1NC(=O)Cn1cc(C(=O)C2CCCCC2)c2ccccc21 | active: 10 µM
25 | CCCCN(CCCNC(=O)c1ccc(Sc2ccc(Cl)cc2)c(NC(C)=O)c1)c1ccccc1 | inconclusive [phenotype inactive, single point]
26 | COc1ccc(NC(=O)Cn2c(=O)n(Cc3ccco3)c(=O)c3cc(OC)c(OC)cc32)cc1 | inconclusive [phenotype inactive, single point]
27 | COc1cccc(CNc2nccn(-c3cc(C)cc(C)c3)c2=O)c1 | inconclusive [phenotype inactive, single point]
28 | CCC1=Nc2cc(C(=O)NCc3ccccc3Cl)ccc2Sc2ccc(C)cc21 | active: 10.2 µM
29 | CCOC(=O)c1c(C)[nH]c(CCC(=O)Nc2c(Cl)cc(OC)cc2OC)c1C | inconclusive [phenotype inactive, single point]
30 | O=C(CSc1nncn2c1cc1occc12)Nc1ccccc1C(F)(F)F | inactive
31 | Cc1ccc(Cl)cc1-n1ncc2c(NC3CCCCC3)ncnc21 | inconclusive [phenotype inactive, partial curve]
32 | N#Cc1cccc(Nc2ncnc3c2cnn3-c2cccc(Cl)c2)c1 | inconclusive [phenotype inactive, single point]
33 | Oc1ccc(NCc2ccccc2OCc2ccccc2)cc1 | active: 7.27 µM
34 | CCN(CC)CCNC(=O)c1cc2c(-c3cccc(OC)c3)nn(C)c2s1 | inconclusive [phenotype inactive, single point]
35 | Cc1cccn2c(=O)c(C(=O)NC(C)c3ccccc3)c(O)nc12 (stereo unspecified) | inconclusive [phenotype inactive, partial curve, poor fit]
36 | COc1ccc(C)cc1-n1nnc(S(=O)(=O)c2ccc(C)cc2)c1C | inconclusive [phenotype inactive, single point]
37 | O=C(CN1c2ccc(Br)cc2-c2ccccc2S1(=O)=O)N1CCCCC1 | inconclusive [phenotype inactive, single point]
38 | COc1cccc(Nc2nc3c(S(=O)(=O)c4cc(C)ccc4C)nnn3c3ccsc23)c1 | inconclusive [phenotype inactive, partial curve, poor fit]
39 | O=C(Nc1sc2c(c1C(=O)NCC1CCCO1)CCC2)c1cc(=O)c2cc(Cl)ccc2o1 (stereo unspecified) | inactive
40 | CCOc1ccc(-c2nnc(SCC(=O)NCc3ccc(C)cc3)nc2-c2ccc(OCC)c(OC)c2)cc1OC | inactive
41 | CCOC(=O)c1cccc(NC(=O)c2cc3cc4cc(OC)ccc4nc3s2)c1 | inconclusive [phenotype inactive, single point]
42 | Cc1ccc(NC(=O)COc2ccc(-c3nn(C)c(=O)c4ccccc34)cc2)cc1 | inconclusive [phenotype inactive, single point]

Row | Compound | Potency
43 | Cc1ccc(NC(=O)c2cn3c4c(ccc(Cl)c4c2=O)OC(C)C3)cc1C (stereo unspecified) | inconclusive [phenotype inactive, partial curve, poor fit]
44 | COc1cccc(N2CCN(C(=O)CCS(=O)(=O)c3ccc4c(c3)CC(=O)N4C)CC2)c1 | inconclusive [phenotype inactive, single point]
45 | Cc1cccc(C)c1NC(=O)C(=O)NCC(c1cccnc1)N1CCc2ccccc21 (stereo unspecified) | inconclusive [phenotype inactive, single point]
46 | COc1cc(NC(=O)CSc2nc(-c3ccccc3)no2)cc(OC)c1 | inactive
47 | Cc1ccc2c(c1)c(=O)c1ccccc1n2CCCC(=O)Nc1ccc(Cl)c(Cl)c1 | inconclusive [phenotype inactive, single point]
48 | CCOc1cc(C(Nc2cc(C)ccn2)c2ccc3cccnc3c2O)ccc1OC (stereo unspecified) | active: 10 µM
49 | Cc1ccc(S(=O)(=O)c2nnn(CC(=O)Nc3ccccc3C)c2N)cc1 | inactive
50 | CCOC(=O)N1CCc2c(sc(NCc3cccs3)c2C(=O)Nc2cc(Cl)ccc2OC)C1 | inconclusive [phenotype inactive, single point]
51 | CCOC(=O)C1CCN(c2nc(-c3ccc(Br)cc3)nc3ccccc23)CC1 | active: 15 µM
52 | Cc1nc2c(-c3ccccc3)c(C)nn2c(C)c1CCC(=O)N1CCN(c2ccccc2)CC1 | inconclusive [phenotype inactive, single point]
53 | O=C1CCc2cc(S(=O)(=O)NCc3ccc(F)cc3)cc3c2N1CC3 | inconclusive [phenotype inactive, single point]
54 | Nc1c(C(=O)Nc2ccc(Cl)c(C(F)(F)F)c2)sc2nc(-c3ccncc3)ccc12 | inconclusive [phenotype inactive, single point]
55 | Cc1c(C(=O)N(C)C)sc2c1c(=O)n(-c1ccc(F)cc1)c(=O)n2Cc1cc(=O)n2ccccc2n1 | inactive
56 | COc1ccccc1OCCCn1c(C2CC(=O)N(c3ccccc3Cl)C2)nc2ccccc21 (stereo unspecified) | inconclusive [phenotype inactive, single point]
57 | CCN(CCCNC(=O)c1nn(-c2ccc(C)cc2)c(=O)c2c1c1ccccc1n2C)c1ccccc1 | inconclusive [phenotype inactive, single point]
58 | COc1c(Cl)cc(Cl)cc1/C=C(\C#N)c1nc2ccccc2[nH]1 | active: 11.3 µM
59 | Cc1c2cnn(CC(=O)NCc3ccccc3)c(=O)c2c(C)n1Cc1cccc(Cl)c1 | active: 12.9 µM
60 | COc1ccc(S(=O)(=O)N(Cc2nc(-c3cccc(C)c3)no2)C2CCCCC2)cc1 | inconclusive [phenotype inactive, single point]
61 | COc1cccc(Cn2c(=O)n(-c3cccc(Cl)c3C)c(=O)c3c4c(sc32)CN(C(C)=O)CC4)c1 | inconclusive [phenotype inactive, partial curve, poor fit]

From PubChem BioAssay AID1508649 (National Center for Advancing Translational Sciences (NCATS), 2021)
